Results from PMC12136788.
This is one part of the list.

B1: chr1:54779711:54781242:-|three_prime_utr|ENSG00000006555|control|control|control (ssRNA)
RNA: GGGAGUUCUACAGUCCGACGAUCGGGACCCCGCCCAGGCCCCGCCCAGCUGAUGGGACCAGGUCCGGAUGGACUCCCUGCCUUAGGCUGACCUGGGAGCGGAGCCAGUUCGAUUCUUGGUCGGGAAUUGUGAAUGGGGAUGUUCAACAGAGGAUUGAGCAUCA
B2: chr10:91942452:91942553:+|CDS|ENSG00000095564|unk|total|mutant (ssRNA)
RNA: GGGAGUUCUACAGUCCGACGAUCAGUUCUAUGGAAGAUUCACCUACUACAGAGCGAUUGAAUUUUGACAGAUUUGAUAUAUGCCGAUUGUUACAACAUGGUGCAUCACUCCUGGGAUCUGCUGGUGCCGAAUUUGAAGUCCAACAACAGAGGAUUGAGCAUCA
B3: chr8:23844609:23844711:-|3pUTR|ENSG00000159167|msi1|total|mutant (ssRNA)
RNA: GGGAGUUCUACAGUCCGACGAUCUUCCGGGGUGUUGACACACCAGUUUUGAGUGUACUGUGCCUGGUUUGAUUUUUUUAAAGCCGUUCCUAUUUUCUAUCCCCCUUAAAGAAAAUUGCAUGAAACCCGGCUUCUGUAAUCAAUCAACAGAGGAUUGAGCAUCA
B4: ENSG00000159842:stop:overlap|stop_codon|ENSG00000159842|stop_codon|NA|stop_codon (ssRNA)
RNA: GGGAGUUCUACAGUCCGACGAUCACCCCCCCAUUUCCUUCGCAGAACUCAAGCGGAACACACUGUACUUCUCCACCGACGUGUAGCCCGAGGCAGGGUGGCUGCGGGCGGGUGGUGGAACCAGCCCCUCCAGCCUGGGGUCCACAACAGAGGAUUGAGCAUCA
B5: chr4:169989555:169989656:-|3pUTR|ENSG00000198948|unk|total|mutant (ssRNA)
RNA: GGGAGUUCUACAGUCCGACGAUCUUGGACAACUCCCUUCCUCUCUCUGGGAUUUAAUCUUUUUCAUCUGUAAAAUAUGCAGGCCGUACUCGAGGGUCUACAGGAUCCCUUCCCGUUGAAACAUUUACCGUUCACAGAAAGUUUCAACAGAGGAUUGAGCAUCA
B6: chr14:39032579:39032680:-|3pUTR|ENSG00000100934|msi1|FALSE|bound_elsewhere (ssRNA)
RNA: GGGAGUUCUACAGUCCGACGAUCUGAUUUUAUAAUGGUAAUUUUCAUGAUGAUAAUGUUUUUGGUUAUUUGGAAAGAUAGUUUAGAGAUGAAAGGUUUUUUUGGGUAACAAUCCCGCAGCUGACAAAAAAUGUGAAAUUUCCACAACAGAGGAUUGAGCAUCA
B7: ENSG00000070961:be:win_2801|CDS|ENSG00000070961|bound_else_gene|NA|bound_elsewhere_windowed (ssRNA)
RNA: GGGAGUUCUACAGUCCGACGAUCGUCAUGCAUUCUAUCAACUUGUAGUAGUCUUUACACUCUUAUUUGCUGGAGAAAAGUUUUUUGACAUUGAUAGUGGAAGAAAUGCUCCUUUGCAUGCUCCUCCUUCAGAACAUUAUACUACAACAGAGGAUUGAGCAUCA
B8: chr12:122133860:122133961:+|CDS|ENSG00000175727|msi1|total|mutant (ssRNA)
RNA: GGGAGUUCUACAGUCCGACGAUCUUUUGUGCACCCCAAACCUGUAUCCUUGACUGGGGGCAGGCCUAAGCAGCCCCACAAAACCGUGCCUGCUCCCAAACCAGAGCCCGUGUCCUUGGUGUUGAAGAAUGCCCGUAUCGCCCCCAACAGAGGAUUGAGCAUCA
B9: chr14:55043969:55044070:+|CDS|ENSG00000180008|unk|total|mutant (ssRNA)
RNA: GGGAGUUCUACAGUCCGACGAUCUUUUUACUUCGAGACUCAGCACAGGAAGACUAUUUAUUCUCUGUCCGUUUCCGACGCUACCGUCGUUCUCUUCAUGCCCGAAUUGAACAGUGGAAUCACAACUUCCGCUUUGAUGCACAUCAACAGAGGAUUGAGCAUCA
B10: ENSG00000124006:stop:overlap|stop_codon|ENSG00000124006|stop_codon|NA|stop_codon (ssRNA)
RNA: GGGAGUUCUACAGUCCGACGAUCCGAAGACCCGGCGGCUCUGGUCCCGCUUCCCCCCAUGGCGACGAACAGCUGGCACUGAGUAGCAGCUGCCCCCAUAGUUUGGGGCCCACAUUCCUCUGUCCCACCUCCCUGCCAUUGCUUCAACAGAGGAUUGAGCAUCA
B11: ENSG00000138660:stop:overlap|stop_codon|ENSG00000138660|stop_codon|NA|stop_codon (ssRNA)
RNA: GGGAGUUCUACAGUCCGACGAUCCUGUAUUAGAACUGUCUGAUUCUGGCAUAAGGCAUUCUGACACAGAUCAACAGACUCGAUAGGGUAAAAUUGUGUGACCUUGUUUAUCAGUUAUGACCAAAUGUUAAAAACCAACUAGAACAACAGAGGAUUGAGCAUCA
B12: chr8:93925380:93925481:+|3pUTR|ENSG00000164951|msi1|total|mutant (ssRNA)
RNA: GGGAGUUCUACAGUCCGACGAUCAUUUAUUUCUAAAUGUUUUGACUGGGCAUUUUUCUUUUAAUGAAAUAUGUGGACUGCUCCCGCAAACCCUAUUUUCAGCUACUAUUUGAAUAUUCUUGAACACCACCACUGAAGAGUUUCCAACAGAGGAUUGAGCAUCA
B13: chr8:11323570:11323671:+|3pUTR|ENSG00000104643|unk|total|mutant (ssRNA)
RNA: GGGAGUUCUACAGUCCGACGAUCGAGCAUACAUAUACAAUGUGUUUCAAAUGCUGCUUGUAAAAUUAAACCAUCAUCCCGAACCGAGUUAAUUUAUUAUAAUCAAGCUACAAACCGGUUUUCUUAAACCAGAGAUGCACUGCCCAACAGAGGAUUGAGCAUCA
B14: chr20:18487131:18487232:-|3pUTR|ENSG00000089050|msi1|FALSE|unique (ssRNA)
RNA: GGGAGUUCUACAGUCCGACGAUCAAAUAUAGUAACCAGUAACCACAGCUAGCUGUAAAAUUGAAAAUUCAGUUCAGUCAAACUAGCCAUAUUUCAAGUGCUCAACAGCCACUGGUGGCUAUUGGUUACCUUACUGACCAGCCACAACAGAGGAUUGAGCAUCA

biological target: MSI1 full-length (mouse, UniProt Q61474 1-362); experiment: nsRBNS (natural sequence RNA bind-n-seq); RBNS binding buffer (assumed for nsRBNS): 25 mM Tris pH 7.5, 150 mM KCl, 3 mM MgCl2, 0.01% Triton X-100, 500 ug/ml BSA, 20 U/ml SUPERase-In, 4 C; UNK is unkempt and MSI1 is Musashi-1; names of the RNAs are library labels; protein concentration not given here; high values mean tight binding
Sequence of UniProt Q61474 (Q61474 whole entry): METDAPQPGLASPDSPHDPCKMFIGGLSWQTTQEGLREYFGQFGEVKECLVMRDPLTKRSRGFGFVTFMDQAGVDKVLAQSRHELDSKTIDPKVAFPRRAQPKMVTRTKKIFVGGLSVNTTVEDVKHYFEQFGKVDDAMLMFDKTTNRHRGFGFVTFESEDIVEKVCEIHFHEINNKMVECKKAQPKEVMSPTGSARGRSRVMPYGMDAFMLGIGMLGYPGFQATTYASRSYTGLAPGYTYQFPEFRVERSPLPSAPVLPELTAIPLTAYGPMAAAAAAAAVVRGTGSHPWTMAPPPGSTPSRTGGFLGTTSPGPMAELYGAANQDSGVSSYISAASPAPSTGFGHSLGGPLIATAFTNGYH

| Binder | binding signal [enrichment R] |
| --- | --- |
| B1 | 0.416 |
| B2 | 0.269 |
| B3 | 0.284 |
| B4 | 0.978 |
| B5 | 0.547 |
| B6 | 1.3 |
| B7 | 0.822 |
| B8 | 0.494 |
| B9 | 0.229 |
| B10 | 0.474 |
| B11 | 0.452 |
| B12 | 0.468 |
| B13 | 0.435 |
| B14 | 0.359 |
